Results taken from the supplement of paper PMC4967469.
A lower IC50 marks a more sensitive line; a fit beyond the top or the lowest dose is shown as a bound at that dose. AUC sums up the same curve from the lowest dose to the 256-fold higher top dose: 1 means no effect, lower means more sensitive. Any top dose called inferred was calculated from the reported fits.

Compound: Cc1ccc(-c2c(C(=O)CF)n(CCCO)c3ncnc(N)c23)cc1 [FMK]
Experiment: Viability of human cancer cell lines after 72 h of drug (GDSC screen)
Conditions: top dose inferred
Procedure: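 Human cancer cell lines in 384-well plates, medium with 10% serum, drug for 72 h over a 256-fold dose range (nine 2-fold or five 4-fold steps up to the top dose). Adherent lines were fixed and stained with the nucleic acid dye Syto60, suspension lines read with resazurin; signal relative to control wells, capped at 0 and 100%. One two-parameter sigmoid per drug and line, fitted in a mixed model over all curves with the slope shared within a line.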

Row | Cell Line | AUC | IC50 [µM]
1 | Ca-Ski (cervix, adherent, top dose 20 µM) | 0.955 | > 20
2 | CaR-1 (large intestine, adherent, top dose 20 µM) | 0.974 | > 20
3 | Calu-3 (lung adenocarcinoma, adherent, top dose 20 µM) | 0.973 | > 20
4 | Calu-6 (lung adenocarcinoma, adherent, top dose 20 µM) | 0.982 | > 20
5 | Caov-3 (ovary, adherent, top dose 20 µM) | 0.991 | > 20
6 | Caov-4 (ovary, adherent, top dose 20 µM) | 0.963 | > 20
7 | Capan-2 (pancreas, adherent, top dose 20 µM) | 0.984 | > 20
8 | ChaGo-K-1 (non-small cell lung carcinoma, adherent, top dose 20 µM) | 0.965 | > 20
9 | D-247MG (glioma, adherent, top dose 20 µM) | 0.853 | > 20
10 | D-263MG (glioma, adherent, top dose 20 µM) | 0.977 | > 20
11 | D-283MED (medulloblastoma, adherent, top dose 20 µM) | 0.989 | > 20
12 | D-336MG (glioma, adherent, top dose 20 µM) | 0.955 | > 20
13 | D-392MG (glioma, adherent, top dose 20 µM) | 0.971 | > 20
14 | D-423MG (glioma, adherent, top dose 10.24 µM) | 0.967 | > 10.2
15 | D-502MG (glioma, adherent, top dose 20 µM) | 0.973 | > 20
16 | D-542MG (glioma, adherent, top dose 20 µM) | 0.982 | > 20
17 | DAN-G (pancreas, adherent, top dose 20 µM) | 0.991 | > 20
18 | DB (B-cell lymphoma, suspension, top dose 20 µM) | 0.97 | > 20
19 | DBTRG-05MG (glioma, adherent, top dose 20 µM) | 0.979 | > 20
20 | DEL (lymphoid neoplasm, suspension, top dose 20 µM) | 0.984 | > 20
21 | DG-75 (Burkitt lymphoma, suspension, top dose 20 µM) | 0.986 | > 20

Row | Cell Line | AUC | IC50 [µM]
22 | DJM-1 (skin, adherent, top dose 20 µM) | 0.989 | > 20
23 | DK-MG (glioma, adherent, top dose 20 µM) | 0.978 | > 20
24 | DMS-53 (small cell lung carcinoma, adherent, top dose 20 µM) | 0.988 | > 20
25 | DMS-79 (small cell lung carcinoma, suspension, top dose 20 µM) | 0.981 | > 20
26 | DMS-114 (small cell lung carcinoma, adherent, top dose 20 µM) | 0.981 | > 20
27 | DMS-273 (small cell lung carcinoma, adherent, top dose 20 µM) | 0.984 | > 20
28 | DND-41 (T-cell leukaemia, suspension, top dose 20 µM) | 0.926 | > 20
29 | DU-4475 (breast, suspension, top dose 20 µM) | 0.977 | > 20
30 | Daoy (medulloblastoma, adherent, top dose 20 µM) | 0.979 | > 20
31 | Daudi (Burkitt lymphoma, suspension, top dose 20 µM) | 0.99 | > 20
32 | Detroit562 (head and neck, adherent, top dose 20 µM) | 0.983 | > 20
33 | DoTc2-4510 (cervix, adherent, top dose 20 µM) | 0.983 | > 20
34 | EB2 (Burkitt lymphoma, suspension, top dose 20 µM) | 0.912 | > 20
35 | EB-3 (Burkitt lymphoma, suspension, top dose 20 µM) | 0.94 | > 20
36 | EBC-1 (lung squamous cell carcinoma, adherent, top dose 20 µM) | 0.978 | > 20
37 | EC-GI-10 (oesophagus, adherent, top dose 20 µM) | 0.989 | > 20
38 | ECC10 (stomach, suspension, top dose 20 µM) | 0.984 | > 20
39 | EFM-19 (breast, adherent, top dose 20 µM) | 0.977 | > 20
40 | EFM-192A (breast, adherent, top dose 20 µM) | 0.983 | > 20
41 | EFO-21 (ovary, adherent, top dose 20 µM) | 0.95 | > 20
42 | EFO-27 (ovary, adherent, top dose 20 µM) | 0.943 | > 20

Row | Cell Line | AUC | IC50 [µM]
43 | EGI-1 (biliary tract, adherent, top dose 20 µM) | 0.952 | > 20
44 | EJM (lymphoid neoplasm, semi-adherent, top dose 20 µM) | 0.988 | > 20
45 | EKVX (lung adenocarcinoma, adherent, top dose 20 µM) | 0.943 | > 20
46 | EM-2 (chronic myeloid leukaemia, suspension, top dose 20 µM) | 0.947 | > 20
47 | EN (endometrium, adherent, top dose 20 µM) | 0.983 | > 20
48 | EPLC-272H (lung squamous cell carcinoma, adherent, top dose 20 µM) | 0.964 | > 20
49 | ES1 (Ewing sarcoma, adherent, top dose 20 µM) | 0.932 | > 20
50 | ES3 (Ewing sarcoma, adherent, top dose 20 µM) | 0.961 | > 20
51 | ES4 (Ewing sarcoma, adherent, top dose 20 µM) | 0.974 | > 20
52 | ES5 (Ewing sarcoma, adherent, top dose 20 µM) | 0.969 | > 20
53 | ES6 (Ewing sarcoma, adherent, top dose 20 µM) | 0.967 | > 20
54 | ES7 (Ewing sarcoma, adherent, top dose 20 µM) | 0.924 | > 20
55 | ES8 (Ewing sarcoma, adherent, top dose 20 µM) | 0.977 | > 20
56 | ES-2 (ovary, adherent, top dose 20 µM) | 0.991 | > 20
57 | ETK-1 (biliary tract, adherent, top dose 20 µM) | 0.966 | > 20
58 | EVSA-T (breast, adherent, top dose 20 µM) | 0.991 | > 20
59 | EW-1 (Ewing sarcoma, semi-adherent, top dose 20 µM) | 0.973 | > 20
60 | EW-3 (Ewing sarcoma, adherent, top dose 20 µM) | 0.972 | > 20
61 | EW-7 (Ewing sarcoma, semi-adherent, top dose 20 µM) | 0.972 | > 20
62 | EW-11 (Ewing sarcoma, adherent, top dose 20 µM) | 0.979 | > 20
63 | EW-13 (Ewing sarcoma, suspension, top dose 20 µM) | 0.958 | > 20

Row | Cell Line | AUC | IC50 [µM]
64 | EW-16 (Ewing sarcoma, adherent, top dose 20 µM) | 0.983 | > 20
65 | EW-18 (Ewing sarcoma, suspension, top dose 20 µM) | 0.976 | > 20
66 | EW-24 (Ewing sarcoma, semi-adherent, top dose 20 µM) | 0.993 | > 20
67 | EoL-1-cell (haematopoietic neoplasm, suspension, top dose 20 µM) | 0.965 | > 20
68 | FADU (head and neck, adherent, top dose 20 µM) | 0.979 | > 20
69 | FU97 (stomach, adherent, top dose 20 µM) | 0.982 | > 20
70 | FU-OV-1 (ovary, adherent, top dose 20 µM) | 0.978 | > 20
71 | Farage (B-cell lymphoma, suspension, top dose 20 µM) | 0.99 | > 20
72 | G-292 Clone A141B1 (osteosarcoma, adherent, top dose 20 µM) | 0.942 | > 20
73 | G-361 (melanoma, adherent, top dose 20 µM) | 0.947 | > 20
74 | G-401 (kidney, adherent, top dose 20 µM) | 0.964 | > 20
75 | G-402 (soft tissue, adherent, top dose 20 µM) | 0.957 | > 20
76 | G-MEL (melanoma, adherent, top dose 20 µM) | 0.952 | > 20
77 | GAK (melanoma, adherent, top dose 20 µM) | 0.989 | > 20
78 | GAMG (glioma, adherent, top dose 20 µM) | 0.975 | > 20
79 | GB-1 (glioma, adherent, top dose 20 µM) | 0.968 | > 20
80 | GCIY (stomach, adherent, top dose 20 µM) | 0.983 | > 20
81 | GDM-1 (acute myeloid leukaemia, suspension, top dose 20 µM) | 0.953 | > 20
82 | GI-1 (glioma, adherent, top dose 20 µM) | 0.981 | > 20
83 | GI-ME-N (neuroblastoma, adherent, top dose 20 µM) | 0.889 | > 20
